The campaign covered roughly 45,000 compounds. About 65 (0.1%) were called active. Calls follow the shape of the dose curve; as a rule, active = well fitted activation curve with a large enough effect; inconclusive = small, poorly fitted or top-dose-only effect; inactive = no such curve, though single readings can be large or run the other way. The list shows a part of the results.
molecular target: Galactocerebrosidase (Homo sapiens) (UniProt P54803); assay: A Novel Cell-Based Assay to Identify Small Molecules for B -Galactocerebrosidase; details: 145M-Twi-hGALC-G270D cells (Twitcher mouse brain line with human GALC G270D), HMU-beta-Gal fluorescence, 48 h; series mostly up to 57.5 µM; activation: at the top concentration; also: 0% is about no effect; nearly all actives have a fitted effect of over 65% in size
UniProt P54803, sequence (P54803 whole entry, looked up): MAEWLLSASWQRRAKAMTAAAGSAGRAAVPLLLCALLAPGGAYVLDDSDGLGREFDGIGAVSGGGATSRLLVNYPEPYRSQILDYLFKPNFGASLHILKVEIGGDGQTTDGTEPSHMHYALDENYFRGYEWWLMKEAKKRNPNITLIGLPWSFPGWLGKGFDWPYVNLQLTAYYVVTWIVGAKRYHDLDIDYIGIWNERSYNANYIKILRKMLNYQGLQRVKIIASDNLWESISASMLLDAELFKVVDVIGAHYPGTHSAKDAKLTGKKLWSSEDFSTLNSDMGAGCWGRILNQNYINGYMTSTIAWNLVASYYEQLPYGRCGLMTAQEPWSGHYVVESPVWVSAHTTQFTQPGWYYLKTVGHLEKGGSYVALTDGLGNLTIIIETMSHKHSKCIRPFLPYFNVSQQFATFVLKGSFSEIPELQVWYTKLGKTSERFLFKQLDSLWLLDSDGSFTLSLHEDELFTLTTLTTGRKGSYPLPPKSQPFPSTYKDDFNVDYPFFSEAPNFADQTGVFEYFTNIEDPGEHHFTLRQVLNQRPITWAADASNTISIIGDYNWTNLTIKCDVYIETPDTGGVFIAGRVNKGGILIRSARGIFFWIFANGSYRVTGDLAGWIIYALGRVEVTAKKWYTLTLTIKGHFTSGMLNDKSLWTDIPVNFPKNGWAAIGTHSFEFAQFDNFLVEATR
Procedure, shortened: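 Mutant human GALC (G270D), stably expressed in a Twitcher mouse brain cell line lacking endogenous GALC, is measured in live-treated cells via 6-hexadecanoylamino-4-methylumbelliferyl-β-galactoside hydrolysis (0.1 mM final, pH 5.2) with fluorescent detection.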

activation, inactive:
COc1ccc(C)c2sc(N(Cc3cccnc3)C(=O)CCc3ccccc3)nc12 -11.6%, O=C(Nc1ccc(Cl)c(Cl)c1)C1CC1 -15.9%, CCCn1c(=O)c2sccc2n2c(CCCC(=O)Nc3ccc(C)c(F)c3)nnc12 -11.8%, CCCCN(CC)C(=O)Nc1ccc2c(c1)N(C)C(=O)c1ccccc1S2 -12.7%, COc1ccc(C(=O)N2CCc3cc(OC)c(OC)cc3C2COc2ccccc2OC)cc1 (stereo unspecified) -19%, CC(=O)Nc1ccc(S(=O)(=O)NC2(C(F)(F)F)NC(=O)N(c3ccc(Cl)cc3)C2=O)cc1 (stereo unspecified) -16.4%, COC(=O)c1c(C)sc(-c2c(-c3cccc(OC)c3)[nH]c3c2c(=O)[nH]c(=O)n3C)c1O 0.423%, Cc1ccc(C(=O)COC(=O)c2cc(-c3ccc(Cl)cc3)nc3ccccc23)cc1 -1.8%, COc1ccc(-c2noc(CN3CCN(c4ccccc4OC)CC3)n2)cc1OC -12.3%, Cn1cc(S(=O)(=O)c2ccccc2)c(=O)c2cc(F)c(N3CCCCC3)cc21 -18.7%, Cc1noc2nc(C(=O)O)nc(N3CCCCC3)c12 -2.72%, COc1ccc(OC)c(-c2noc(CSc3nnc(Cc4ccccc4)n3-c3cccc(C)c3)n2)c1 -11.9%, CCc1nnc(SCC(=O)Nc2cc(Cl)c(OC)cc2OC)c2cc3oc(C)cc3n12 -16%, COc1cccc(N2CC(NC(=O)COc3ccc4ccccc4c3)CC2=O)c1 (stereo unspecified) -19.5%, CC1CCC(NC(=O)Cn2ncc3c4ccccc4n(Cc4ccc(Cl)cc4)c3c2=O)CC1 (stereo unspecified) -13.4%, CC(=O)c1ccc(NC(=O)CCn2nc(C)c(S(=O)(=O)N3CCC(C)CC3)c2C)cc1 2.97%, Cc1ccc(NC(=O)CN2C(=O)CCc3ccccc32)cc1C -15.9%, Cc1ccc(OCc2nc(-c3ccc(C(=O)NCCc4ccc(Cl)cc4)cc3)oc2C)cc1 -20.5%, CCOC(=O)c1c(C)[nH]c(C)c1S(=O)(=O)N1CCCC(C(=O)N2CCN(c3ccccc3F)CC2)C1 (stereo unspecified) -20.5%, COc1ccc(N2CCN(Cc3nc4c(c(=O)[nH]c(=O)n4C)n3Cc3ccc(C)cc3)CC2)cc1 19.1%, COc1ccc(N(CC(=O)NC(C)c2ccccc2)S(=O)(=O)c2c(C)nn(C)c2C)cc1 (stereo unspecified) -7.74%, CCc1nn(CC(=O)N2CCN(c3cccc(OC)c3)CC2)c(=O)c2cc3occc3n12 -19.2%, Cc1ccccc1CN1C(=O)c2ccccc2Sc2ccc(C(=O)NC3CCCCC3)cc21 -14%, COc1ccc(NC(=O)c2nn(C)c3c2CS(=O)(=O)c2ccccc2-3)cc1Cl -2.76%, CC(C)Nc1ccc(-c2nc(-c3ccncc3)no2)cc1[N+](=O)[O-] -15.1%, COc1ccc(S(=O)(=O)c2cnc3cc(OC)c(OC)cc3c2N2CCCC(C)C2)cc1 (stereo unspecified) -6.78%, COc1ccccc1C(=O)N(Cc1nc(-c2cccc(C)c2)no1)C(C)C -27.9%, CC1CCN(CC2CCN(C(=O)NCc3ccc(F)cc3)CC2)CC1 -6.25%, O=C(O)c1ccc(Cn2cnc3cccnc32)cc1 -11.1%, CC1CN(C(=O)CCC(=O)NCc2cccc(Cl)c2)c2ccccc2S1 (stereo unspecified) 5.14%, CCc1ccc(OCc2nc(-c3ccc(-n4cccc4)cc3)no2)cc1 -9.24%, CCc1nc(-c2cc(S(=O)(=O)N3CCN(c4ccc(OC)cc4)CC3)ccc2OC)no1 -21.2%, CC(C)CCOc1ccc(C2N=C(N)Nc3nc4ccccc4n32)cc1 (stereo unspecified) 0.725%, O=S(=O)(NCCc1csc2nc(-c3ccccc3)nn12)c1cccs1 -13%, CCOc1ccc(-c2cn3c(n2)sc2cc(C(=O)NCCc4ccc(OC)cc4OC)ccc23)cc1 3.67%, O=C(NCc1ccccc1)c1nc(S(=O)(=O)Cc2ccc(F)cc2)ncc1Cl -13%, CCOc1ccc(C2C(C(=O)Nc3ccccc3)=C(C)Nc3nc(SCc4cccc(OC)c4)nn32)cc1 (stereo unspecified) -14.4%, Cc1ccc(/C=C/c2onc(C)c2S(=O)(=O)N2CCC(C(=O)N3CCN(c4cccc(C)c4)C(C)C3)CC2)cc1 (stereo unspecified) -14.9%, CCCCN(CC)C(=O)CSc1nc2n[nH]c(C)c2c(=N)n1-c1cccc(C)c1 -10.7%, COc1cccc2c1cc1c(=O)n(CC(=O)N3CCN(c4cccc(C(F)(F)F)c4)CC3)nc(C)n12 18.3%, CCOc1ccccc1NC(=O)C(CC(C)C)NC(=O)C1CCC(C)CC1 (stereo unspecified) -14.9%, CC(Oc1c(Cl)cccc1Cl)C1=NCCN1 (stereo unspecified) -8.56%, COc1ccc(-n2nc3ccc(NC(=O)c4ccc(C#N)cc4F)cc3n2)cc1Cl -12.7%, Cc1ccc(NC(=O)CCc2c(C)nn(-c3ccc(N4CCOCC4)nn3)c2C)c(C)c1 -15.8%, O=C(COc1ccccc1Cl)Nc1nnc(S(=O)(=O)N2CCCC2)s1 -9.58%, O=S(c1cc(Cl)cc(Cl)c1O)c1cc(Cl)cc(Cl)c1O -14.4%, COc1cccc(COC(=O)c2ccc(-c3nnn(Cc4cccc(OC)c4)n3)cc2)c1 -12.9%, COc1ccc(Cn2c(CO)cnc2SCC(=O)Nc2ccc3c(c2)OCCO3)cc1 -24.9%, O=C(Nc1cccs1)Nc1ccc(F)cc1F -16.8%, O=C(Nc1cccc(C(F)(F)F)c1)c1cc(-c2ccc(Cl)s2)nc2ccccc12 -10.9%, O=C(O)Cn1c(-c2cccs2)cc2cc(Cl)ccc21 -17.7%, COc1cccc2sc(NC(=O)CS(=O)(=O)c3ccc(C)cc3)nc12 -7.3%, CCOc1ccc(NC2SC(=O)N(Cc3ccccc3)C2=O)cc1 (stereo unspecified) -17.6%, CC1CCc2c(sc3nnn(Cc4cccc(C(=O)OC(C)C)c4)c(=O)c23)C1 (stereo unspecified) 0.544%, CN(C)CC/C=C1\c2ccccc2COc2ccccc21 0.411%, CC(=O)N1CCc2c(sc3c2c(=O)n(-c2ccc(F)cc2)c(=O)n3Cc2ccc(C#N)cc2)C1 -17.9%, COCCn1ccc2c(OCC(=O)Nc3c(C)cc(C)cc3C)cccc2c1=O -10.7%, COCCCNC(=O)Cn1nc(N2CCN(c3ccccc3)CC2)ccc1=O -4.65%, Cn1c(-n2cccc2)c(-c2c(-c3ccc(F)cc3)[nH]c3c2c(=O)n(C)c(=O)n3C)c(=O)n(C)c1=O 26.9%, CCCSc1oc(-c2ccco2)nc1S(=O)(=O)c1ccc(Br)cc1 -13.8%, Cc1ccc(S(=O)(=O)n2nc(-c3ccc(Cl)cc3)nc2NCc2ccccc2)cc1 -6.45%, COc1ccc(-n2ccnc(NCc3cccs3)c2=O)cc1OC -7.62%, CCn1c(C(=O)NCc2ccccc2OC)cc2sccc21 4.37%, CCOc1ccccc1CNC(=O)C1CCN(S(=O)(=O)c2c(C)noc2/C=C/c2ccccc2F)CC1 -7.15%, CC1=C(c2ccc(C(C)C)cc2)S(=O)(=O)N=C1N1CCC(C(=O)NCc2ccccc2)CC1 -4.99%, COc1ccc(CC(=O)Nc2cc(-c3cn4cccnc4n3)ccc2C)cc1OC -2%, CCC(=O)Nc1ccc(CC)cc1-c1nc2ccccc2n(CC(=O)Nc2cccc(OC)c2)c1=O -11%, COc1cccc(C2=CC(c3ccccc3F)n3ncc(C(=O)Nc4ccc(C)cc4)c3N2)c1 (stereo unspecified) -11.9%, Cc1ccc(CCNC(=O)c2sc3ncccc3c2-n2c(C)ccc2C)cc1 -17.9%, CC1CCCCN1c1c(S(=O)(=O)c2ccc(Cl)cc2)cnc2ccccc12 (stereo unspecified) -8.06%, COc1ccc(C(=O)Nc2ccc3nc4c(c(Nc5ccc(OC)c(OC)c5)c3c2)CCCC4)c(OC)c1 -4.53%, CCOC(=O)c1cc2c(=O)n3ccccc3nc2n(CC(C)C)c1=NC(=O)COc1ccc(Cl)cc1 -19.1%, COc1ccc(-c2nc(CS(=O)CC(=O)NCCc3ccccc3)c(C)o2)cc1OC (stereo unspecified) -17.4%, Cc1cc(C)cc(-n2ccnc(NCCc3ccccc3)c2=O)c1 2.96%, CCc1ccc(-n2c(=O)c3ccccc3n(CC(=O)NCCc3ccc(OC)c(OC)c3)c2=O)cc1 -4.62%, COc1ccc(Cl)cc1NC(=O)NCCn1c(=O)oc2ccc(C)cc21 -13.2%, COc1ccc(C)cc1NC(=O)N1CCC(CN2CCOCC2)CC1 -0.755%, Cc1ccc(N(CC(=O)N2CCN(c3cccc(Cl)c3)CC2)S(=O)(=O)c2c(C)noc2C)cc1 -1.64%, Cc1ccc(Cl)cc1-n1nnc(-c2nsc(NC(=O)c3ccccc3Cl)n2)c1C -11.3%, COc1ccc(OC)c(NC(=O)CCCc2nnc3n(C(C)C)c(=O)c4sccc4n23)c1 -9.34%, CCn1cc2nc(SCc3cccc(C(F)(F)F)c3)n(Cc3ccc(Cl)cc3)c(=O)c2n1 -11.2%, Cc1ccc(C)c(N2CCN(C(=O)c3cnn(C(C)(C)C)c3C3CCN(C(=O)OC(C)(C)C)CC3)CC2)c1 -14.3%, Cc1ccc2oc(C(=O)Nc3ccc(S(=O)(=O)N4CCCC(C)C4)cc3)cc(=O)c2c1 (stereo unspecified) -22.2%, COc1ccc(-c2cn3nc(N4CCC(C(=O)Nc5ccccc5OC)CC4)sc3n2)cc1 6%, CCN(CC)C(=O)c1sc2c(c1C)c(=O)n(-c1ccccc1)c(=O)n2Cc1c(C)cc(C)cc1C -3.17%, CCOc1ccc(NC(=O)CC2C(=O)N(c3ccccc3)C(=O)N2CCc2cccs2)cc1 (stereo unspecified) -8.1%, Cn1cc(S(C)=O)c(=O)c2ccc(F)cc21 (stereo unspecified) -22%, Cc1ccc2cc3cc(C(=O)N4CCN(c5ccc(Cl)cc5)CC4)oc3nc2c1 -14.4%, Cc1ccccc1NC(=O)c1c(NC(=O)c2ccccc2)sc2c1CCC2 -16.9%, CCN(CC)C(=O)c1ccc2c(c1)N(Cc1c(F)cccc1Cl)C(=O)c1ccccc1S2 -9.92%, CC(C)C(NS(=O)(=O)c1ccc2c(c1)oc(=O)n2C)C(=O)N1CCN(c2cccc(Cl)c2)CC1 (stereo unspecified) -14.6%, O=C(CSc1nc(=O)[nH]c2c1CCCC2)Nc1ccc(Cl)c(Cl)c1 -14.8%, COc1ccc(N2CC(NC(=O)c3cccs3)CC2=O)cc1 (stereo unspecified) -8.27%, Cc1ccn2c(Nc3c(C)cccc3C)c(-c3ccsc3)nc2c1 -11.4%, COC(=O)Cn1c(=NC(=O)c2ccc3c(c2)OCCO3)sc2ccccc21 -18.3%, Cc1ccc(C(=O)n2nc(C)c(S(=O)(=O)N3CCCCCC3)c2C)cc1C -6.07%

Source: PubChem BioAssay AID1159614 (National Center for Advancing Translational Sciences (NCATS), 2016)
